109 sequences from publication PMC4242493 can be followed below.

This is one part of the list. The list includes weakly bound sequences.

The assay addresses MaxL homodimer (UniProt P61244). Description: universal protein-binding microarray (PBM). To be noted: PBS-based mixture, 10 nM His-tagged protein dimer, 2% milk, 200 ng/uL BSA, 50 ng/uL salmon testes DNA, 0.02% TX-100; detection with Alexa 488 anti-His …; high values mean tight binding; most listed sequences are background and not binding sites; double strand, one strand shown.
UniProt P61244, sequence (P61244 whole entry): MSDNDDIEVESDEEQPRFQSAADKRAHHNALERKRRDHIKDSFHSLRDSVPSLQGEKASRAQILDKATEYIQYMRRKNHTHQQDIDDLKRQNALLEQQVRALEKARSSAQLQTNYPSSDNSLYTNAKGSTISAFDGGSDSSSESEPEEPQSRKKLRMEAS
Turning to AGACCCAG, the binding signal (normalized occupancy) came out at 0.075.

Regarding CATAGATA, the binding signal (normalized occupancy) is 0.0841.

For the sequence CAGGTCGG, the binding signal (normalized occupancy) was 0.0699.

As to ATCGGTAA, the binding signal (normalized occupancy) came out at 0.0719.

As to CTCAACTC, the binding signal (normalized occupancy) came out at 0.0709.

Consider GAGTGGCA, for which the binding signal (normalized occupancy) came to 0.0766.

On to ATCCCGGG, for which the binding signal (normalized occupancy) came out at 0.0723.

Turning to TCGCCAAA, the binding signal (normalized occupancy) was 0.0685.

Turning to ACGAGAGT, the binding signal (normalized occupancy) turned out to be 0.0778.

As to CACACCCA, the binding signal (normalized occupancy) came to 0.0877.

Turning to AGTGGGGC, the binding signal (normalized occupancy) is 0.078.

Regarding CCCGAGAA, the binding signal (normalized occupancy) is 0.0681.

Take ATCTTACA: the binding signal (normalized occupancy) turned out to be 0.078.

As to ATTACGAC, the binding signal (normalized occupancy) worked out at 0.077.

For the sequence CTCCGGGA, the binding signal (normalized occupancy) is 0.068.

In the case of AAGTTTGT, the binding signal (normalized occupancy) was determined as 0.0719.

For the sequence GAAGGCAC, the binding signal (normalized occupancy) turned out to be 0.0754.

Turning to CGCAGTTA, the binding signal (normalized occupancy) worked out at 0.075.

Take AGCAGCAT: the binding signal (normalized occupancy) is 0.082.

Consider TAGTACGA, for which the binding signal (normalized occupancy) was 0.0745.

As to ACGCGACC, the binding signal (normalized occupancy) worked out at 0.0824.

On to CGGTAACA, for which the binding signal (normalized occupancy) is 0.0761.

ATAAAAAC: the binding signal (normalized occupancy) was determined as 0.0768.

CTAATGAA: the binding signal (normalized occupancy) is 0.0783.

Turning to AGTATCAA, the binding signal (normalized occupancy) was determined as 0.0766.

Turning to AAAACACT, the binding signal (normalized occupancy) is 0.0729.

Take GGGTTAAC: the binding signal (normalized occupancy) is 0.0738.

As to GTGTAAGA, the binding signal (normalized occupancy) is 0.077.

AAAAGTGC: the binding signal (normalized occupancy) came to 0.0747.

As to TCCGTAGA, the binding signal (normalized occupancy) was found to be 0.0698.

On to AACGCAGT, for which the binding signal (normalized occupancy) came to 0.0712.

With ATCACAAC, the binding signal (normalized occupancy) turned out to be 0.0793.

Regarding ATACATCC, the binding signal (normalized occupancy) worked out at 0.0805.

For AATATTAG, the binding signal (normalized occupancy) was 0.0746.

Turning to AGTTTTGA, the binding signal (normalized occupancy) is 0.0696.

Consider AGTCACCA, for which the binding signal (normalized occupancy) came to 0.0772.

Turning to AACCAACT, the binding signal (normalized occupancy) stood at 0.0709.

On to GTGCTTGA, for which the binding signal (normalized occupancy) came out at 0.0758.

With GGGGGCCA, the binding signal (normalized occupancy) was 0.0752.

As for CTCTTAAA, the binding signal (normalized occupancy) was 0.0712.

As for ATGGCCCC, the binding signal (normalized occupancy) worked out at 0.0839.

Take ATCCAGGG: the binding signal (normalized occupancy) was 0.0695.

In the case of ATCAGAAG, the binding signal (normalized occupancy) was 0.0773.

Turning to CTGGAGAC, the binding signal (normalized occupancy) was found to be 0.0695.

For the sequence CCATCTCA, the binding signal (normalized occupancy) came out at 0.0829.

GCAGCTGC: the binding signal (normalized occupancy) stood at 0.0718.

Consider GTATATTA, for which the binding signal (normalized occupancy) came out at 0.0866.

On to GGCGAAGA, for which the binding signal (normalized occupancy) is 0.0728.

Take ATACCGAC: the binding signal (normalized occupancy) stood at 0.0791.

For TCGAGCAA, the binding signal (normalized occupancy) was determined as 0.0693.

Take AGGAATGG: the binding signal (normalized occupancy) amounted to 0.0747.

Take ACGATGGA: the binding signal (normalized occupancy) was found to be 0.0778.

Regarding TGTGAACA, the binding signal (normalized occupancy) was determined as 0.0858.

Consider CACCCTTA, for which the binding signal (normalized occupancy) was found to be 0.0766.

For GTACATAC, the binding signal (normalized occupancy) turned out to be 0.0862.

CCTTGACA: the binding signal (normalized occupancy) was 0.0776.

As to CAAGTAGG, the binding signal (normalized occupancy) is 0.0732.

As for GAAACTGC, the binding signal (normalized occupancy) worked out at 0.0688.

As for CTCGCAGA, the binding signal (normalized occupancy) was 0.0714.

With ACACTCTC, the binding signal (normalized occupancy) was 0.08.

With ACTATGTG, the binding signal (normalized occupancy) turned out to be 0.0847.

On to AGCTCGAG, for which the binding signal (normalized occupancy) was 0.0709.

Take TAGGTGAA: the binding signal (normalized occupancy) turned out to be 0.0807.

In the case of GATCTGGC, the binding signal (normalized occupancy) was 0.073.

With CAGTACTC, the binding signal (normalized occupancy) came out at 0.0744.

Turning to ATGGGTTC, the binding signal (normalized occupancy) worked out at 0.0823.

AATGAGAC: the binding signal (normalized occupancy) turned out to be 0.0746.

In the case of ACGGCCTA, the binding signal (normalized occupancy) turned out to be 0.072.

Consider GACTCAAC, for which the binding signal (normalized occupancy) turned out to be 0.0699.

In the case of AGGGCGTG, the binding signal (normalized occupancy) is 0.0846.

In the case of CCCCTTCG, the binding signal (normalized occupancy) was determined as 0.0696.

Take CGCCTCAC: the binding signal (normalized occupancy) was determined as 0.074.

For CGGGTCAC, the binding signal (normalized occupancy) turned out to be 0.076.

ACAGTAAC: the binding signal (normalized occupancy) came out at 0.0773.

Regarding ACCCTCCT, the binding signal (normalized occupancy) came out at 0.0774.

ATTAGCAA: the binding signal (normalized occupancy) is 0.076.

In the case of CCTGACGA, the binding signal (normalized occupancy) was found to be 0.0754.

With CCCCAGCC, the binding signal (normalized occupancy) turned out to be 0.0755.

Take AAGAATCT: the binding signal (normalized occupancy) came to 0.077.

On to CTCTACAG, for which the binding signal (normalized occupancy) worked out at 0.0764.

For AACATTTA, the binding signal (normalized occupancy) was 0.0795.

Take CCCACGAC: the binding signal (normalized occupancy) was determined as 0.0824.

Turning to CACTGAAG, the binding signal (normalized occupancy) was 0.0655.

In the case of AAGACCGG, the binding signal (normalized occupancy) came to 0.072.

As to GGCACCTA, the binding signal (normalized occupancy) turned out to be 0.0739.

Take TACACGGA: the binding signal (normalized occupancy) came out at 0.0772.

For ACATCAGT, the binding signal (normalized occupancy) worked out at 0.0736.

In the case of TACGTTAA, the binding signal (normalized occupancy) is 0.0789.

For ATGATCGC, the binding signal (normalized occupancy) was 0.0826.

For the sequence CCGAAAGC, the binding signal (normalized occupancy) was 0.0673.

As to AGCCGATA, the binding signal (normalized occupancy) was determined as 0.0735.

As to CCGGGACC, the binding signal (normalized occupancy) is 0.0643.

ACCCGTAT: the binding signal (normalized occupancy) turned out to be 0.0754.

On to CAGGGGGC, for which the binding signal (normalized occupancy) stood at 0.0703.

On to CTCATGCC, for which the binding signal (normalized occupancy) stood at 0.0954.

For the sequence GCTTTAAA, the binding signal (normalized occupancy) stood at 0.0688.

With ATGCATTC, the binding signal (normalized occupancy) came to 0.0908.

With CTTTACTA, the binding signal (normalized occupancy) amounted to 0.0697.

Consider GAGGGGAA, for which the binding signal (normalized occupancy) came out at 0.0755.

For the sequence GAAATACC, the binding signal (normalized occupancy) is 0.0735.

For CGGTTCCA, the binding signal (normalized occupancy) amounted to 0.0708.

In the case of GTGTTATA, the binding signal (normalized occupancy) was determined as 0.0829.

Consider AAGTTATT, for which the binding signal (normalized occupancy) was determined as 0.0742.

For the sequence GATCGCGC, the binding signal (normalized occupancy) came to 0.0764.

Consider GATGGCGA, for which the binding signal (normalized occupancy) is 0.0738.

Take CGCAACGC: the binding signal (normalized occupancy) was 0.0733.

As to AATTATGC, the binding signal (normalized occupancy) came out at 0.081.

On to GGATTCAA, for which the binding signal (normalized occupancy) was determined as 0.0767.

As for AGAGACCA, the binding signal (normalized occupancy) was 0.0683.
